Test results: the RNAGym collection of RNA variant scans (doi:10.1073/pnas.2313332121)
This sample is rich in variants without activity.

B1: TPR 5TU (parent)
chain: GGAUCUUCUCGAUCUAACAAAAAAGACAAAUCUGCCACAAAGCUUGAGAGCAUCUUCGGAUGCAGAGGCGGCAGCCUUCGGUGGCGCGAUAGCGCCAACGUUCUCAACUAUGACACGCAAAACGCGUGCUCCGUUGAAUGGAGUUUAUCAUG

Variants of: B1
Assay: polymerase ribozyme fitness, log enrichment relative to wild type (log ratio); higher = more active; in vitro selection for triplet polymerase activity
Summary of the method: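 To select mutant libraries of each subunit of a heterodimeric triplet polymerase ribozyme, built by PCR and transcribed, each was annealed with a biotinylated primer, partner subunit and triplets, then incubated frozen at −7 °C. Extended constructs were gel-excised, captured on streptavidin beads and amplified by RT-PCR, in one round carried out in triplicate. Illumina sequencing of input and output libraries kept genotypes with ≥10 input reads and ≥1 read per output. Fitness is the base-2 logarithm of genotype enrichment relative to wild-type enrichment, from inverse-variance-weighted replicate averages.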

Variant | polymerase ribozyme fitness (log ratio)
C8U A12U A52U C85G | ≤ -4.2
C8U A16G C38U C79G | ≤ -4.2
C8U A16G C87U | ≤ -4.2
C8U A16U A21C A26G C54U C69A U78G G81U C116A | ≤ -4.2
C8U A16U A21C G67U C87U | ≤ -4.2
C8U A16U A47G U56G G65U G68C G83A A89U | ≤ -4.2
C8U A17G A21U C57U G80A C96G | ≤ -4.2
C8U A17U A24C G71C A120C | ≤ -4.2
C8U A17U A49U U53A G83U G133C | ≤ -4.2
C8U A17U G42C C116U C125U U146G | ≤ -4.2
C8U A19C A24U A66C A73U G84U C85U C87G C103G C131G | ≤ -4.2
C8U A19G A20U A28C G86U C93G A113U | ≤ -4.2
C8U A19G A39U C54U U61A G71A U77A G80C G88U G112C A113G C125G A150U | ≤ -4.2
C8U A20C C51U G88C A150G | ≤ -4.2
C8U A20C C75A A89U U90G C93U C99A | ≤ -4.2
C8U A20C G58U G59A C87G C96U C105A | ≤ -4.2
C8U A20C U61A C76A A91U C96U C114U | ≤ -4.2
C8U A20G A39C G83C A91U U145C | ≤ -4.2
C8U A20G C57A C72A U78G G83U G86A | ≤ -4.2
C8U A20U A41C U44A U90C G92A C105U | ≤ -4.2
C8U A20U G86U A107G G143C U151A | ≤ -4.2
C8U A21C A22U C43A U61A G94A A97C A138G | ≤ -4.2
C8U A21U A29C C57G G84U C149G | ≤ -4.2
C8U A21U A29C G58A C87A C95G | ≤ -4.2

Variant | polymerase ribozyme fitness (log ratio)
C8U A22C U44A A89U G94C C116A | ≤ -4.2
C8U A22G A98G C131U U139C U144G | ≤ -4.2
C8U A22G C75A C87U G140C | ≤ -4.2
C8U A22U A23G C32A U82G G83A C87A U146G | ≤ -4.2
C8U A22U A49G C69A G86A U104G C108U | ≤ -4.2
C8U A22U G83A C85U A120C G124A U145C | ≤ -4.2
C8U A23C C36G U55A A106U A107G C108U C125G | ≤ -4.2
C8U A23U G46A A49C A91C C129G | ≤ -4.2
C8U A23U G59U G68U U82C A91U A97U G133C | ≤ -4.2
C8U A23U G62A G88U C103A U134G | ≤ -4.2
C8U A24C C85U G124C | ≤ -4.2
C8U A24G C43U C72A U77G G86A A89U U90G A107U | ≤ -4.2
C8U A24G G46C G58U C69A C93A C99A G133A | ≤ -4.2
C8U A24U A26U U55A C87A | ≤ -4.2
C8U A24U A29U A41C G74A C99A G124U | ≤ -4.2
C8U A24U C27U A37C G74A G81A A106C G117C G128A | ≤ -4.2
C8U A24U C51G G58C A64C C85U | ≤ -4.2
C8U A24U G70A G92A U135A | ≤ -4.2
C8U A24U U33G C76U C85A G88U C96G C123U U144G | ≤ -4.2
C8U A26C C76G G94C C125A | ≤ -4.2
C8U A26U A47U A91C C96U | ≤ -4.2
C8U A26U C27U G92C G100C C103G | ≤ -4.2
C8U A26U U44A C85U A115U C118A G133U | ≤ -4.2
C8U A26U U82G C95A | ≤ -4.2

Variant | polymerase ribozyme fitness (log ratio)
C8U A28C A37C C57U G67C G74C C93U U104C U144C | ≤ -4.2
C8U A28G A29U A30U U33A A73G G92U U148C | ≤ -4.2
C8U A28G A30U U44A U45A A91C C95U A97C C103G C105G | ≤ -4.2
C8U A28G C43U G86U A113U | ≤ -4.2
C8U A28U A52C C54A C87U G92U G141U U145C U146A | ≤ -4.2
C8U A28U C51U C79A C95A C96A U102A C118U G141C | ≤ -4.2
C8U A29U C43A G46C C57G C85U U144G | ≤ -4.2
C8U A30G G86A | ≤ -4.2
C8U A30U C72A C85U C99A | ≤ -4.2
C8U A37C A41G U44C G62C A73G C93U A147C | ≤ -4.2
C8U A39C G59C C96U C103A C114U C116U | ≤ -4.2
C8U A39G C99U A110G U146A | ≤ -4.2
C8U A39G G84C U102G C116G A119C C149G | ≤ -4.2
C8U A40U U53G G67A G92C C105A | ≤ -4.2
C8U A47C U55A A64G | ≤ -4.2
C8U A49C | ≤ -4.2
C8U A49G G100U U145A | ≤ -4.2
C8U A52U C54U G83A C118A U127G | ≤ -4.2
C8U A52U U53A U56G A66C C75U C85U U139C A150C | ≤ -4.2
C8U A60G A121C | -3.73
C8U A60U | -3.79
C8U A64G G68C C85U | ≤ -4.2
C8U A89U G92U C93A C125U A138C | ≤ -4.2
C8U C10A A52C C54U A137C | ≤ -4.2

Variant | polymerase ribozyme fitness (log ratio)
C8U C10G A47U A60C C87A C114U | ≤ -4.2
C8U C14G U53A G59A A73G C95G C96U | ≤ -4.2
C8U C14U U31G C108U A138C | ≤ -4.2
C8U C18G C38A C76U U78C A106U A110C C132G U135C U144C U148A C149G | ≤ -4.2
C8U C27U A39G C57G C87G C93G A107G G112C | ≤ -4.2
C8U C27U C38U A39C C69U G94C C95G C103G | ≤ -4.2
C8U C27U C54A U55A A97U C103G U134G | ≤ -4.2
C8U C32A A49G G92A C96U U127G A138G | ≤ -4.2
C8U C32A G58C C93G G94U C95U G117U | ≤ -4.2
C8U C32G C38G G68C C93U C108U C114G | ≤ -4.2
C8U C32U C85U C125G C132A | ≤ -4.2
C8U C32U U53A C87U C96A U139A | ≤ -4.2
C8U C32U U53A G70A C87U U130A | ≤ -4.2
C8U C35A C85A C105G G117C | ≤ -4.2
C8U C35A C93U G141A | ≤ -4.2
C8U C35U A41C G58C G68U G86U C114A G140A | ≤ -4.2
C8U C36A A49G C72U G86C G140A | ≤ -4.2
C8U C51U C93U C123U C129G | ≤ -4.2
C8U C54A | -3.8
C8U C54G G67A A97C G136A | ≤ -4.2
C8U C54U G88C G92U U104A A107U | ≤ -4.2
C8U C57U G71C G86A U104A | ≤ -4.2
C8U C57U U61A A64C G94A A107C A138U | ≤ -4.2
C8U C69A G83A C85G C105U | ≤ -4.2

Variant | polymerase ribozyme fitness (log ratio)
C8U C79A A89U C95G A107U | ≤ -4.2
C8U C79A G84A C87A A137C | ≤ -4.2
C8U C85G C93G | ≤ -4.2
C8U C87G A91U C105U U127A G141U U146A | ≤ -4.2
C8U C93A | ≤ -4.2
C8U C93U C99G | ≤ -4.2
C8U C95U | -2.24
C8U C99A | -3.69
C8U G11A A47U A107G C108U U109G U135A | ≤ -4.2
C8U G11A C36U C85G G128C | ≤ -4.2
C8U G11A U53A C93A U130G | ≤ -4.2
C8U G11C A23C A60G G94U G136U U144A | ≤ -4.2
C8U G11C C32U U33G G92A G143U A150G | ≤ -4.2
C8U G42A U55A C57A C85U C87A A142U | ≤ -4.2
C8U G42C C57U G74U C79U A107C | ≤ -4.2
C8U G50U G71C C85G | ≤ -4.2
C8U G58A G62C U82G A106G G141C | ≤ -4.2
C8U G58C C85U A97U A119U | ≤ -4.2
C8U G59U C87A | ≤ -4.2
C8U G62A C105U A142U G143C | ≤ -4.2
C8U G67A U82G U90G C96A C105A C116A C125U U135A A147C U148G | ≤ -4.2
C8U G68C A91C A122C | ≤ -4.2
C8U G70U C76A G81U C85U U101A U134A | ≤ -4.2
C8U G71U G81C A89C | ≤ -4.2

Variant | polymerase ribozyme fitness (log ratio)
C8U G86U A122G | ≤ -4.2
C8U G94A | -3.24
C8U G141U | -2.76
C8U U9A A26G A49U C54G C79U G81A G83C C85U C116U G117A | ≤ -4.2
C8U U9A G92U C108G A120U C129A C149G | ≤ -4.2
C8U U9C A20G A24U C36U G80A G92A A137U U148A | ≤ -4.2
C8U U15A U44A A97C A120U U139A | ≤ -4.2
C8U U15C A17U A40G G42C U61G C75U C93U C129U G133U | ≤ -4.2
C8U U31A G48C A60G C72U C95G A121C U148A | ≤ -4.2
C8U U33A A49G A60G A89C C93U G141C | ≤ -4.2
C8U U33A C38U G62A | ≤ -4.2
C8U U44A A97G G133C U148A | ≤ -4.2
C8U U44A C131U | ≤ -4.2
C8U U44A G48A C63U C69U C76G G92U U139A G140U | ≤ -4.2
C8U U44A G50A C57U C72U G92A G141U G143U A150G | ≤ -4.2
C8U U45A A49G G58U G83U G141U | ≤ -4.2
C8U U45A G83U G92U C131U A150G | ≤ -4.2
C8U U45G C63G A91G C93U U146G | ≤ -4.2
C8U U56A G94A A97U U102C | ≤ -4.2
C8U U56G G71C C85U C116A | ≤ -4.2
C8U U61A C79A G83C | ≤ -4.2
C8U U61G C85G C105G A115C | ≤ -4.2
C8U U82A G92C G100C G124U C132U | ≤ -4.2
U9A A12C G67A C93U A147G C149U | ≤ -4.2

Variant | polymerase ribozyme fitness (log ratio)
U9A A12U C85U G88C U148G | ≤ -4.2
U9A A16C A22U A41C C76G C93U A138U A142G | ≤ -4.2
U9A A17C C18G A29C G67C A97U | ≤ -4.2
U9A A17U A23G G88U C95G A115U C123G C129G U130A G140U U145G | ≤ -4.2
U9A A19U G133C | ≤ -4.2
U9A A20C G70C C96U C99A | ≤ -4.2
U9A A20U A21U A39G C54A G92C C116G | ≤ -4.2
U9A A21C G42A A47C U53G U55A G67A C118A | ≤ -4.2
U9A A21G A22U C27A C63G C99U U102A | ≤ -4.2
U9A A21G C116G A122G | ≤ -4.2
U9A A21U | -3.81
U9A A22U A39G C96G U109G | ≤ -4.2
U9A A23C A24G G84A G88U C93U C149U | ≤ -4.2
U9A A24C A49C G74C A91G U148A | ≤ -4.2
U9A A24C C93A C103G A113U C114U | ≤ -4.2
U9A A24U A52G G70C A107C U144A | ≤ -4.2
U9A A26U G92U A142U | ≤ -4.2
U9A A30U A37G U44A G68C C85A C96U A120G U139G A142G U144A | ≤ -4.2
U9A A30U C36G G88U G141C | ≤ -4.2
U9A A39C C76U G86U A147C C149G | ≤ -4.2
U9A A39U A49G G59A C75U G84U G94A U130C | ≤ -4.2
U9A A39U U61A C76U C93A A120U G141A | ≤ -4.2
U9A A40C G46U C85U C96A | ≤ -4.2
